# From the supplement of paper PMC9135407
# Where “and” joins values, the source holds several entries; their conditions need not be identical. Identical values can stand only once. Counter-ions that a name gives are not always drawn. About 620 (11%) of roughly 5,800 compounds showed activity.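 How the source made its calls: active = score above a cut-off or among the top three wells of a plate; in these data no inactive exceeds 0.85.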 Only a part is listed here, and it is no random draw.
# Tested on: primary human hepatic stellate cells (donor 1)
# Assay: scaled lipid accumulation score (0 = DMSO-like, 1 = nortriptyline-like); higher = stronger HSC inactivation (lipid re-accumulation), active = hit call of the paper
# Settings: 48 h
# [1] = library stock concentration: 10 mM
# [2] = library stock concentration: 1 mM
# [3] = library stock concentration: 3.33 mM
smiles,measurement,setting,value
C=CCN1CC[C@]23c4c5ccc(O)c4O[C@H]2/C(=N/NC(=O)c2ccccc2)CC[C@@]3(O)[C@H]1C5 [Naloxone benzoylhydrazone],scaled lipid accumulation score,[1],inactive: 0.006
CCCCC/C=C\C/C=C\C/C=C\C/C=C\CCCC(=O)NCc1ccc(O)c(OC)c1 [Arvanil],scaled lipid accumulation score,[2],inactive: ≤ 0
C#C[C@]1(O)CC[C@H]2[C@@H]3CCC4=CC(=O)CC[C@]4(C)[C@H]3CC[C@@]21C [Ethisterone],scaled lipid accumulation score,,inactive: ≤ 0
same,scaled lipid accumulation score,library stock concentration: 6.4 mM,inactive: 0.134 and inactive: 0.803
same,scaled lipid accumulation score,[1],inactive: 0.757
C/C=C1/C[N+]2(C)CCC34C(=C(C=O)[C@H]1C[C@@H]32)Nc1ccccc14 (stereo partly drawn) [Fluorocurarine chloride],scaled lipid accumulation score,,inactive: ≤ 0
CC(C)[N+](C)(CCC(C(N)=O)(c1ccccc1)c1ccccc1)C(C)C [Isopropamide iodide],scaled lipid accumulation score,,inactive: ≤ 0
same,scaled lipid accumulation score,[1],inactive: ≤ 0
O=C([O-])c1ccccc1-c1c2cc(Br)c(=O)cc-2oc2[c]([Hg+])c([O-])c(Br)cc12.[Na+].[Na+].[OH-] [Merbromin],scaled lipid accumulation score,,inactive: ≤ 0
same,scaled lipid accumulation score,[1],inactive: ≤ 0
CN1C[C@H](C(=O)N[C@]2(C)O[C@@]3(O)[C@@H]4CCCN4C(=O)[C@H](Cc4ccccc4)N3C2=O)C[C@@H]2c3cccc4[nH]cc(c34)C[C@H]21.CS(=O)(=O)O [Dihydroergotamine methanesulfonate],scaled lipid accumulation score,[1],active: 1.06
O=c1[nH]c2ccccc2n1CCCN1CCC(n2c(=O)[nH]c3cc(Cl)ccc32)CC1 [Domperidone],scaled lipid accumulation score,,inactive: 0.362
same,scaled lipid accumulation score,[3],inactive: 0.062
same,scaled lipid accumulation score,library stock concentration: 4.7 mM,inactive: 0.135 and inactive: 0.071
COP(=S)(OC)Oc1ccc(SC)c(C)c1,scaled lipid accumulation score,[1],inactive: ≤ 0
CC[C@@H](C(N)=O)N1CCCC1=O [Levetiracetam],scaled lipid accumulation score,[3],inactive: ≤ 0
same,scaled lipid accumulation score,[1],inactive: ≤ 0 and inactive: 0.072
same,scaled lipid accumulation score,library stock concentration: 11.8 mM,inactive: ≤ -0.006
NCC(CS(=O)(=O)O)c1ccc(Cl)cc1 (stereo not drawn) [Saclofen],scaled lipid accumulation score,[1],inactive: ≤ 0
CC[C@@]1(O)C[C@H](O)c2c(cc3c(c2O)C(=O)c2c(O)ccc(O)c2C3=O)[C@H]1C(=O)OC [Rutilantinone],scaled lipid accumulation score,[1],inactive: ≤ 0
O=C(O)CCCc1ccc(N(CCCl)CCCl)cc1 [Chlorambucil],scaled lipid accumulation score,,inactive: ≤ 0
same,scaled lipid accumulation score,library stock concentration: 6.6 mM,inactive: ≤ 0 and inactive: 0.01
same,scaled lipid accumulation score,[1],inactive: ≤ 0
O=C(O)CCCc1ccc(N(CCCl)CCCl)cc1,scaled lipid accumulation score,[1],inactive: ≤ 0
O=C(O)CCCc1ccc(N(CCCl)CCCl)cc1 [Chloroambucil],scaled lipid accumulation score,[3],inactive: ≤ 0
same,scaled lipid accumulation score,[1],inactive: ≤ -0.001
O=Cc1cn(Cc2ccc(Cl)cc2)c2ccccc12 [Oncrasin 1],scaled lipid accumulation score,[1],inactive: 0.016
C[C@@H]1O[C@@H](O[C@H]2C[C@@H](O)[C@]3(CO)C4C(CC[C@]3(O)C2)[C@@]2(O)CC[C@H](C3=CC(=O)OC3)[C@@]2(C)C[C@H]4O)[C@H](O)[C@H](O)[C@H]1O (stereo partly drawn) [Ouabain],scaled lipid accumulation score,[1],active: 0.993
C[C@]12CC[C@H]3[C@@H](CC[C@]4(O)C[C@@H](O)CC[C@]34C=O)[C@@]1(O)CC[C@@H]2C1=CC(=O)OC1 [Strophanthidin],scaled lipid accumulation score,,active: 0.887
CCS(=O)(=O)Nc1cccc(C(=C2CCCCC2)c2cnc[nH]2)c1,scaled lipid accumulation score,[1],inactive: 0.044
O=C1/C(=C/c2ccccc2)C[C@@]2(O)[C@H]3Cc4ccc(O)c5c4[C@@]2(CCN3CC2CC2)[C@H]1O5 [BNTX maleate salt hydrate],scaled lipid accumulation score,[1],inactive: ≤ -0.006
CCCCCCCCCCCCCC(=O)O[C@@H]1[C@@H](C)[C@@]2(O)[C@@H](C=C(CO)C[C@]3(O)C(=O)C(C)=C[C@@H]23)[C@@H]2C(C)(C)[C@]12OC(C)=O [Phorbol 12-myristate 13-acetate],scaled lipid accumulation score,[1],inactive: ≤ 0
COc1ccc(C(=O)N2CCCC2=O)cc1 [Aniracetam],scaled lipid accumulation score,[3],inactive: ≤ 0
same,scaled lipid accumulation score,library stock concentration: 9.1 mM,inactive: ≤ -0.006 and inactive: 0.001
same,scaled lipid accumulation score,[1],inactive: ≤ 0 and inactive: 0.022
Cc1ncc(CN2CC=C(c3ccccc3)CC2)c(N)n1,scaled lipid accumulation score,[1],inactive: ≤ -0.001
Cc1[nH]c2ccc(O)cc2c1CCN [2-Methyl-5-hydroxytryptamine hydrochloride],scaled lipid accumulation score,[1],inactive: 0.026
Cc1[nH]c2ccc(O)cc2c1CCN [2-Methyl-5-hydroxytryptamine maleate],scaled lipid accumulation score,[1],inactive: 0.018
C[C@@H]1O[C@@H](O[C@H]2C[C@@H](O)[C@]3(CO)[C@@H]4C(CC[C@]3(O)C2)[C@@]2(O)CC[C@H](C3COC(=O)C3)[C@@]2(C)C[C@H]4O)[C@H](O)[C@H](O)[C@H]1O (stereo partly drawn) [Dihydroouabain],scaled lipid accumulation score,[1],active: 0.964
O=C(O[C@H]1C[C@H]2CC[C@@H](C1)[N+]21CCCC1)C(O)(c1ccccc1)c1ccccc1 [Trospium chloride],scaled lipid accumulation score,[3],inactive: ≤ 0
same,scaled lipid accumulation score,[1],inactive: ≤ 0
C[C@]12CCC(=O)C=C1CC[C@@H]1[C@@H]2C(=O)C[C@]2(C)C(=O)CC[C@@H]12 [Adrenosterone],scaled lipid accumulation score,,inactive: ≤ 0
CC[C@H](C)[C@H]1O[C@]2(C=C[C@@H]1C)C[C@@H]1C[C@@H](C/C=C(\C)[C@@H](O[C@H]3C[C@H](OC)[C@@H](O[C@H]4C[C@H](OC)[C@@H](O)[C@H](C)O4)[C@H](C)O3)[C@@H](C)/C=C/C=C3\CO[C@@H]4[C@H](O)C(C)=C[C@@H](C(=O)O1)[C@]34O)O2.CO[C@H]1C[C@H](O[C@H]2[C@H](C)O[C@@H](O[C@@H]3/C(C)=C/C[C@@H]4C[C@@H](C[C@]5(C=C[C@H](C)[C@@H](C(C)C)O5)O4)OC(=O)[C@@H]4C=C(C)[C@@H](O)[C@H]5OC/C(=C\C=C\[C@@H]3C)[C@]54O)C[C@@H]2OC)O[C@@H](C)[C@@H]1O [Abamectin],scaled lipid accumulation score,library stock concentration: 2.3 mM,inactive: 0.027 and inactive: ≤ 0
CC[C@H](C)[C@H]1O[C@]2(C=C[C@@H]1C)C[C@@H]1C[C@@H](C/C=C(\C)[C@@H](O[C@H]3C[C@H](OC)[C@@H](O[C@H]4C[C@H](OC)[C@@H](O)[C@H](C)O4)[C@H](C)O3)[C@@H](C)/C=C/C=C3\CO[C@@H]4[C@H](O)C(C)=C[C@@H](C(=O)O1)[C@]34O)O2.CO[C@H]1C[C@H](O[C@H]2[C@H](C)O[C@@H](O[C@@H]3/C(C)=C/C[C@@H]4C[C@@H](C[C@]5(C=C[C@H](C)[C@@H](C(C)C)O5)O4)OC(=O)[C@@H]4C=C(C)[C@@H](O)[C@H]5OC/C(=C\C=C\[C@@H]3C)[C@]54O)C[C@@H]2OC)O[C@@H](C)[C@@H]1O [Avermectin B1],scaled lipid accumulation score,,inactive: ≤ 0
CC[C@H](C)[C@H]1O[C@]2(C=C[C@@H]1C)C[C@@H]1C[C@@H](C/C=C(\C)[C@@H](O[C@H]3C[C@H](OC)[C@@H](O[C@H]4C[C@H](OC)[C@@H](O)[C@H](C)O4)[C@H](C)O3)[C@@H](C)/C=C/C=C3\CO[C@@H]4[C@H](O)C(C)=C[C@@H](C(=O)O1)[C@]34O)O2.CO[C@H]1C[C@H](O[C@H]2[C@H](C)O[C@@H](O[C@@H]3/C(C)=C/C[C@@H]4C[C@@H](C[C@]5(C=C[C@H](C)[C@@H](C(C)C)O5)O4)OC(=O)[C@@H]4C=C(C)[C@@H](O)[C@H]5OC/C(=C\C=C\[C@@H]3C)[C@]54O)C[C@@H]2OC)O[C@@H](C)[C@@H]1O [Avermectin b1],scaled lipid accumulation score,[1],inactive: ≤ 0
CN1C2CCC1CC(OC(=O)c1cc(Cl)cc(Cl)c1)C2 (stereo not drawn),scaled lipid accumulation score,[1],active: 1.04
CN(C)Cc1c[nH]c2ccccc12 [Gramine],scaled lipid accumulation score,,inactive: 0.049
same,scaled lipid accumulation score,[3],inactive: ≤ 0
same,scaled lipid accumulation score,[1],inactive: 0.643
Nc1ccncc1 [Fampridine],scaled lipid accumulation score,library stock concentration: 21.3 mM,inactive: ≤ 0
Nc1ccncc1 [4-Aminopyridine],scaled lipid accumulation score,[1],inactive: ≤ 0 and inactive: 0.047
same,scaled lipid accumulation score,library stock concentration: 53.1 mM,inactive: ≤ -0.021
C[N+]1(C)CCOC(O)(c2ccc(-c3ccc(C4(O)C[N+](C)(C)CCO4)cc3)cc2)C1 (stereo not drawn) [Hemicholinium bromide],scaled lipid accumulation score,,inactive: 0.078
C[N+]1(C)CCOC(O)(c2ccc(-c3ccc(C4(O)C[N+](C)(C)CCO4)cc3)cc2)C1 (stereo not drawn) [Hemicholinium-3],scaled lipid accumulation score,[1],inactive: ≤ -0.07
COc1ccc(CNC(=O)/C=C/c2ccc3[nH]cc(CCN(C)C)c3c2)cc1,scaled lipid accumulation score,[1],inactive: 0.736
C[CH2][Hg][S]c1ccccc1C(=O)[O-].[Na+] [Thimerosal],scaled lipid accumulation score,library stock concentration: 4.9 mM,inactive: ≤ 0
same,scaled lipid accumulation score,[1],inactive: 0.537
NC(=O)C[S@@+]([O-])C(c1ccccc1)c1ccccc1,scaled lipid accumulation score,[1],inactive: ≤ 0
CC(C)(C)OC(=O)NC1[C@H]2CNC[C@@H]12 (stereo partly drawn),scaled lipid accumulation score,[1],inactive: ≤ -0.033
Cc1ncc2n1-c1ccc(Cl)cc1C(c1ccccc1F)=NC2,scaled lipid accumulation score,[1],inactive: ≤ 0
NC(=O)c1ccc(OCC(O)CN2CC=C(c3ccc(F)cc3)CC2)cc1 (stereo not drawn),scaled lipid accumulation score,[1],inactive: 0.081
NNCc1ccccc1 [Benzylhydrazine hydrochloride],scaled lipid accumulation score,[1],inactive: 0.294
CC(C)=CC1C(C(=O)OCc2cccc(Oc3ccccc3)c2)C1(C)C (stereo not drawn) [Phenothrin],scaled lipid accumulation score,[1],inactive: ≤ -0.027
CCOC(=O)CN1C(=O)CC(C[C@@H](O)C2C[C@@H](C)C[C@H](C)C2=O)CC1=O (stereo partly drawn) [Cycloheximide-N-ethylethanoate],scaled lipid accumulation score,library stock concentration: 13.6 mM,inactive: ≤ -0.021
C[N+](C)(C)CC#CCN1CCCC1=O [Oxotremorine methiodide],scaled lipid accumulation score,[1],inactive: ≤ -0.055
C[N+](C)(C)CC#CCN1CCCC1=O [Oxotremorine M],scaled lipid accumulation score,[1],inactive: ≤ 0
COc1ccn(C)c(=O)c1C#N [Ricinine],scaled lipid accumulation score,,inactive: ≤ 0
CCCCC/C=C\C/C=C\C/C=C\C/C=C\CCC(C)C(=O)NCCF (stereo not drawn),scaled lipid accumulation score,[2],inactive: 0.05
